Among all 2,100 compounds or so, about 670 (32%) were called active. Inconclusive results, whose numbers are uncertain, are shown with a selection of clear calls. Calls come from the whole dose curve; as a rule, active = well fitted inhibition curve with a large enough effect; inconclusive = small, poorly fitted or top-dose-only effect; inactive = no such curve, though single readings can be large or run the other way. Potencies beside an inconclusive call are fits to weak or partial responses and may not hold up.
assay: CMV-Luciferase Counterscreen for Inhibitors of ATXN expression; conditions: HEK-293 CMV-luciferase reporter, luminescence, 24 h; series mostly up to 57.5 µM; activity change, negative = inhibition: at the top concentration; note: nearly all actives have a fitted effect of over 55% in size
% is set by controls: 0 for no effect and ±100 for the full control effect; potency is the fitted concentration of half-maximal effect; tags give direction and shape of the fitted curve.

Compound | Potency | activity change, negative = inhibition
CC1=C(CC[C@@H](C)CO)OC2CC3C4CCC5CC(O)CCC5(C)C4CC(=O)C3(C)C12 (stereo partly specified) | inconclusive: 3.98 µM [inhibitor, single point] | 
CCNc1ccc(Br)cc(C(=O)/C=C/c2ccc(Cl)cc2Cl)c1=O | inconclusive: 2.24 µM [inhibitor, partial curve, poor fit] | 
O=C1c2cccc3c([N+](=O)[O-])ccc(c23)C(=O)N1c1ccccn1 | inconclusive: 2 µM [inhibitor, partial curve, poor fit] | 
COCCCNC1=C(Cl)C(=O)c2ccccc2C1=O | inconclusive: 15.8 µM [inhibitor, partial curve, poor fit] | 
Fc1ccc2[nH]c3c(NCc4ccccc4)ncnc3c2c1 | active: 0.631 µM | 
Clc1ccc(CSc2ccc(-c3ccccn3)nn2)cc1 | inconclusive: 3.98 µM [inhibitor, single point] | 
COc1cc([N+](=O)[O-])cc(/C=N/NC(=O)c2ccc(NC(=O)c3ccc(C)cc3)cc2)c1O | inconclusive: 1.26 µM [inhibitor, full curve, poor fit] | 
CN(C)CCNC(=O)c1cccc(-c2cnc3c(NC=O)cc(-c4cccs4)cn23)c1 |  | inactive: 0.48%
O=C(NC(c1ccccc1)c1ccc2ccccc2n1)C1CCN(CCOc2ccc(Cl)cc2Cl)CC1 (stereo unspecified) | inconclusive: 25.1 µM [inhibitor, single point] | 
Cc1ccc2nc3cc([N+](=O)[O-])cc([N+](=O)[O-])c3cc2c1 | inconclusive: 39.8 µM [inhibitor, single point] | 
CN(C)CCn1c2ccccc2c2nc3ccc([N+](=O)[O-])cc3cc21 | inconclusive: 7.94 µM [inhibitor, full curve, poor fit] | 
C/C(=N\NC(=O)CN1CCCCC1)c1ccccc1O | inconclusive: 3.98 µM [inhibitor, partial curve, poor fit] | 
CCCC(=O)NC(c1ccc(Cl)cc1Cl)c1ccc2cccnc2c1O (stereo unspecified) | active: 2.51 µM | 
COc1ccc(CSCC(=O)N/N=C/c2ccccc2O)cc1 | active: 25.1 µM | 
O=C(Oc1c(CN2CCOCC2)cc(Cl)c2cccnc12)c1ccccc1 | inconclusive: 2.24 µM [inhibitor, partial curve, poor fit] | 
CCCNC(=O)c1ccc2c(=O)c(O)c(-c3ccc(C)cc3)[nH]c2c1 | inconclusive: 39.8 µM [inhibitor, single point] | 
Cn1c(/C=C/c2ccc(Cl)cc2)c([N+](=O)[O-])c(=O)n(C)c1=O | active: 31.6 µM | 
Cn1nnnc1Sc1ncnc2scc(-c3ccc[nH]3)c12 | active: 20 µM | 
O=C(N/N=C(\Cc1ncc[nH]1)c1ccccc1)c1ccncc1 | inconclusive: 4.47 µM [inhibitor, full curve] | 
NC(Cc1ccc(F)cc1)c1csc(NC(=O)NC(c2ccccc2)c2ccccc2)n1 (stereo unspecified) | inconclusive: 31.6 µM [inhibitor, single point] | 
O=C(CP(=O)(c1ccccc1)c1ccccc1)N/N=C/c1cc(Br)cc(Br)c1O | active: 1.78 µM | 
CCc1ccc(OCCNc2cc(N3CCNC(C)C3)ccc2[N+](=O)[O-])cc1 (stereo unspecified) | inconclusive: 39.8 µM [inhibitor, single point] | 

Compound | Potency | activity change, negative = inhibition
COc1ccc(C(=O)c2c(C)c3ccccc3n2CC(O)CNC(C)C)cc1 (stereo unspecified) | inconclusive: 17.8 µM [inhibitor, partial curve, poor fit] | 
NC(=O)CC(NC(=O)Cc1ccc(Br)cc1)c1ccc(NC2CCCC2)c([N+](=O)[O-])c1 (stereo unspecified) | active: 3.16 µM | 
COc1ccc(/C=N/Nc2cc(N3CCCC3)nc(N3CCCC3)n2)cc1 |  | inactive: -17.8% [at 11.4 µM]
Cc1cc(C)c2nc(N(CCCN(C)C)C(=O)c3ccc4c(c3)OCCO4)sc2c1 | active: 28.2 µM | 
N#CCc1nc2ccccc2c(=O)[nH]1 |  | inactive: -6.07%
COc1ccc(C(=O)c2sc(Nc3ccccc3)nc2N)cc1OC |  | inactive: 129%
CCC(=O)OCCNc1cc(Sc2nc3ccccc3[nH]2)c2nonc2c1[N+](=O)[O-] |  | inactive: -17% [at 11.4 µM]
OC[C@@H]1[C@@H](c2ccc(F)cc2)C(c2ccccc2)=NN1c1ccccc1 | inconclusive: 39.8 µM [inhibitor, single point] | 
COc1ccc(/C(N)=N/OC(=O)N2CCOCC2)cc1 |  | inactive: 20.7% [at 11.4 µM]
Nc1nonc1-n1nnc(C(=O)N/N=C/c2ccccc2O)c1CN1CCCC1 | active: 10 µM | 
CCOC(=O)C1CCN(c2cc3c(cc2NC(=O)c2ccccc2OCC)n(C)c(=O)n3C)CC1 | inconclusive: 22.4 µM [inhibitor, single point] | 
Cc1ccc(CN(C)C(=O)CN2C(=O)NC(c3ccccc3)(c3ccccc3)C2=O)c(C)c1 | inconclusive: 3.55 µM [inhibitor, single point] | 
O=C(c1ccc(S(=O)(=O)c2cccc(Cl)c2)c([N+](=O)[O-])c1)N1CCN(Cc2ccccc2)CC1 | inconclusive: 14.1 µM [inhibitor, partial curve, poor fit] | 
O=C(Nc1c(Cl)cccc1Cl)Oc1cccc2cccnc12 | active: 10 µM | 
CN(C)CCCNc1nc2cc(-c3ccc(F)cc3)sc2c(=O)n1C |  | inactive: -18.5%
COc1ccc(C)cc1Nc1nc(N)c2cc(OC)c(OC)cc2n1 |  | inactive: -12.3% [at 11.4 µM]
CC(C)(C)c1ccc(CC(=O)N2CCC2(C)C(=O)Nc2cnc3ccccc3c2)cc1 (stereo unspecified) | inconclusive: 3.98 µM [inhibitor, single point] | 
c1ccc(-c2cc3c(N4CCN(c5ccccc5)CC4)ncnc3s2)cc1 | inconclusive: 39.8 µM [inhibitor, single point] | 
CC1CCN(Cc2c(C(=O)N/N=C/c3cc(Cl)ccc3O)nnn2-c2nonc2N)CC1 | active: 0.562 µM | 
CC(NC1=CC(=O)c2cccnc2C1=O)C(O)c1ccccc1 (stereo unspecified) | active: 15.8 µM | 
Cc1cc(N/N=C/c2ccc(O)cc2O)nc(-n2nc(C)cc2C)n1 | inconclusive: 5.62 µM [inhibitor, full curve] | 
Cc1cccc(Nc2c3c(nc4ccccc24)CCC3)c1 | inconclusive: 12.6 µM [inhibitor, partial curve] | 

Compound | Potency | activity change, negative = inhibition
Cc1c(N=C2N=C(NC(=O)Nc3ccc(Cl)cc3)c3ccccc32)c(=O)n(-c2ccccc2)n1C |  | inactive: -6.01%
COc1ccc(CNCC(O)(c2ccc(Cl)cc2)c2ccc(Cl)cc2)cc1OC | inconclusive: 3.98 µM [inhibitor, partial curve] | 
O=C(NC(c1ccc(Cl)cc1)c1cc(Cl)c2cccnc2c1O)c1cccnc1 (stereo unspecified) | inconclusive: 1.78 µM [inhibitor, full curve, poor fit] | 
Cn1ncc2c(Nc3cccc(Cl)c3)nc(Nc3cccc(Cl)c3)nc21 | inconclusive: 35.5 µM [inhibitor, single point] | 
CCN(CCCn1c(=S)[nH]c2ccc(N3CCOCC3)cc2c1=O)c1ccccc1 | inconclusive: 4.47 µM [inhibitor, single point] | 
O=[N+]([O-])c1cc(Cl)cc(/C=N\Nc2ccccn2)c1O | inconclusive: 1.58 µM [inhibitor, full curve] | 
Cc1ccc2[nH]c(O)c(N=NC(=O)C3CC3c3ccccc3)c2c1Br (stereo unspecified) |  | inactive: -21.9% [at 11.4 µM]
COc1ccc(O)c(/C=N/NC(=O)CCC(=O)Nc2cccc(C)c2)c1 | active: 10 µM | 
O=C(N/N=C\c1cc(Cl)ccc1O)c1ccc(S(=O)(=O)N2CCCCC2)cc1 | active: 0.316 µM | 
O=C(Nc1ccc(Cl)c(Cl)c1)Nc1nnc(CSc2ccccc2)s1 | inconclusive: 0.708 µM [inhibitor, full curve, poor fit] | 
CC(=O)NC(=C(Cl)Cl)S(=O)(=O)c1ccccc1 | inconclusive: 25.1 µM [inhibitor, single point] | 
O=C(NNc1ccnc2cc(Cl)ccc12)C1CCCCC1 | inconclusive: 0.562 µM [inhibitor, partial curve] | 
COc1cc2c(cc1OC)C(C)N(C(=O)c1cc3c(s1)-c1ccccc1OC3)CC2 (stereo unspecified) | inconclusive: 22.4 µM [inhibitor, single point] | 
CCN(CC)CCNC(=O)C1CCN(S(=O)(=O)c2c(C)noc2/C=C/c2ccccc2F)CC1 | inconclusive: 6.31 µM [inhibitor, single point] | 
O=C(NN=C1CCCC1)c1cc(-c2ccc(F)cc2)nc2ccccc12 | inconclusive: 31.6 µM [inhibitor, single point] | 
CCN(CC)CCNC(=O)c1ccc(NC(=O)Cc2cccc3ccccc23)cc1 | inconclusive: 3.55 µM [inhibitor, single point] | 
COc1cc(OC)c2cc(C(=O)N/N=C/c3cccc(OC)c3O)[nH]c2c1 | inconclusive: 3.55 µM [inhibitor, full curve, poor fit] | 
CCOc1ccc(C(CN2CCOCC2)C(C)=O)cc1OC (stereo unspecified) | inconclusive: 20 µM [inhibitor, single point] | 
O=C(Nc1ccc(N2CCN(C(=O)c3ccco3)CC2)c(Cl)c1)c1c(F)c(F)c(F)c(F)c1F | inconclusive: 39.8 µM [inhibitor, single point] | 
CC(N)c1csc(NC(=O)c2cc(C(C)(C)C)nn2Cc2ccccc2)n1 (stereo unspecified) | inconclusive: 4.47 µM [inhibitor, partial curve, poor fit] | 
COCC(=O)OC/C(O)=C(\C#N)c1nc2ccccc2[nH]1 |  | inactive: -13.1% [at 11.4 µM]
N#C/C(=C\c1cccc([N+](=O)[O-])c1)C(=O)NCc1ccc(Cl)cc1 | inconclusive: 7.08 µM [inhibitor, single point] | 

Reference: PubChem BioAssay AID1745847 (National Center for Advancing Translational Sciences (NCATS), 2022)
